Common to all, as to test: split-ubiquitin assay; chemically inducible dimerization split-ubiquitin system in yeast NMY51 TOR1-1 Δfpr1; bHLH as bait (pFKBP12), MYB as prey (pFRB); drop tests of three colonies on SD-AHLW, 2 days at 30°C; SD-AHLW+Rapa as positive control
The target of experiment [1] is T1, GL3 (Arabidopsis thaliana) (UniProt Q9FN69).
T1 sequence: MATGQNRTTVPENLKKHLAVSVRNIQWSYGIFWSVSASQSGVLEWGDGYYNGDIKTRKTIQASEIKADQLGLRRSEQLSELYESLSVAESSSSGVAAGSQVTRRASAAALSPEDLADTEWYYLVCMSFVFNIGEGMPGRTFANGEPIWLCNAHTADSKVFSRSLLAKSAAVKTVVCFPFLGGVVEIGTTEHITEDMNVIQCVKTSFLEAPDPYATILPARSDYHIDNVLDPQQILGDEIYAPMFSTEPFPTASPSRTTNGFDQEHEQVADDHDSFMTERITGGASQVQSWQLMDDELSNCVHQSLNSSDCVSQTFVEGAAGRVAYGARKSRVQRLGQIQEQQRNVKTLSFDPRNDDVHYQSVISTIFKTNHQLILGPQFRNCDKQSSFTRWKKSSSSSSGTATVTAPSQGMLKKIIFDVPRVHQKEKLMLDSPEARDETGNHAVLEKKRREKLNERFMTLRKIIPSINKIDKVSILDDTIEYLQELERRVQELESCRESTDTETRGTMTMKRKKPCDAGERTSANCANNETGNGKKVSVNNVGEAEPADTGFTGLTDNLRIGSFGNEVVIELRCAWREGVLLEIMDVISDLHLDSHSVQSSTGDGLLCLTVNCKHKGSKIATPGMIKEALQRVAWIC

By UniProt entry, the sequences of proteins in these tests, tags left out.
UniProt Q9FIP9: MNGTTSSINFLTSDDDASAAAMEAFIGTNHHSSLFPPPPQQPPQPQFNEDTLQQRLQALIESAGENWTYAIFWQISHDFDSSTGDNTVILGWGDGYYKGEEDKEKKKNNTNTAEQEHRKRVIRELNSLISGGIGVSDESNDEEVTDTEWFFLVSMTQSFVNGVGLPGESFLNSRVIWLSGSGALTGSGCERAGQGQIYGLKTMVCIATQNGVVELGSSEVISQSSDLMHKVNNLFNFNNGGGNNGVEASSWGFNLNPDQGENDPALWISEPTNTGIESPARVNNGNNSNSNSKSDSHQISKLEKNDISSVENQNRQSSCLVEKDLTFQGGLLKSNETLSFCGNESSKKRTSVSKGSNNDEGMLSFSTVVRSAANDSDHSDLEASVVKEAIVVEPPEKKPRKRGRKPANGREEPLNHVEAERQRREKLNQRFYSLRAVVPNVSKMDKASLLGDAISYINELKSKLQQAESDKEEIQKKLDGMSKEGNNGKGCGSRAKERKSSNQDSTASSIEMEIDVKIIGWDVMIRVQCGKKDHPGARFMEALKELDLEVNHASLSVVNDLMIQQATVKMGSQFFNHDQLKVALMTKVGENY
UniProt O49687: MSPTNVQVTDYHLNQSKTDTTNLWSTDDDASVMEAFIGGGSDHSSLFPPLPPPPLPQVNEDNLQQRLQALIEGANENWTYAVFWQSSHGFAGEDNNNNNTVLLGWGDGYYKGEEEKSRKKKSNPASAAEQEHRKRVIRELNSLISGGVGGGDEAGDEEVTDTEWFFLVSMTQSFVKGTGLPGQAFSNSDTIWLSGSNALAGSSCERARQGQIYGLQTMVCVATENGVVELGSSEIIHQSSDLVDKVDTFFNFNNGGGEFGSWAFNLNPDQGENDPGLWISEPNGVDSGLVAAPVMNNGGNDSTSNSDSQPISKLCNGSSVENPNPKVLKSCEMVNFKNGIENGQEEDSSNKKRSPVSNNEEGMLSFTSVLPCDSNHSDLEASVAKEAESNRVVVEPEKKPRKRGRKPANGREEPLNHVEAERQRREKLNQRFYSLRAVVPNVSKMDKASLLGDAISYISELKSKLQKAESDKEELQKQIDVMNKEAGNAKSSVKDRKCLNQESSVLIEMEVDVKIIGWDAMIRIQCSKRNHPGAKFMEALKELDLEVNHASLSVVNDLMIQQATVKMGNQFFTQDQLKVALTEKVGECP

Experiment [2] deals with MYC3 (Arabidopsis thaliana) (UniProt Q9FIP9).
Experiment [3] has as its target MYC4 (Arabidopsis thaliana) (UniProt O49687).

These are yes or no findings as the source states them, for the method shown. Binding seen in cells or lysates may run through a third protein. Some results given as binding are weak or reduced against the parent protein; the word gives no strength.

B1: MYB75 non-MYB region (residues K110-D248) (domain or fragment, UniProt Q9FE25 110-248)
chain: KKHEPCCKIKMKKRDITPIPTTPALKNNVYKPRPRSFTVNNDCNHLNAPPKVDVNPPCLGLNINNVCDNSIIYNKDKKKDQLVNNLIDGDNMWLEKFLEESQEVDILVPEATTTEKGDTLAFDVDQLWSLFDGETVKFD
As for B1, the binding entry in experiment [1] is “no binding”.

B2: MYB29 full-length (protein, UniProt Q9FLR1 1-336)
chain: MSRKPCCVGEGLKKGAWTAEEDKKLISYIHEHGEGGWRDIPQKAGLKRCGKSCRLRWANYLKPDIKRGEFSYEEEQIIIMLHASRGNKWSVIARHLPKRTDNEIKNYWNTHLKKLLIDKGIDPVTHKPLAYDSNPDEQSQSGSISPKSLPPSSSKNVPEITSSDETPKYDASLSSKKRCFKRSSSTSKLLNKVAARASSMGTILGASIEGTLISSTPLSSCLNDDFSETSQFQMEEFDPFYQSSEHIIDHMKEDISINNSEYDFSQFLEQFSNNEGEEADNTGGGYNQDLLMSDVSSTSVDEDEMMQNITGWSNYLLDHSDFNYDTSQDYDDKNFI
Turning to B2, the binding entry in experiment [1] was “no binding”; in experiment [2], “binds”; in experiment [3] it was “binds”.

B3: MYB29 with mutated MIM (L190K, K192N, A194Y) (protein, UniProt Q9FLR1 1-336)
chain: MSRKPCCVGEGLKKGAWTAEEDKKLISYIHEHGEGGWRDIPQKAGLKRCGKSCRLRWANYLKPDIKRGEFSYEEEQIIIMLHASRGNKWSVIARHLPKRTDNEIKNYWNTHLKKLLIDKGIDPVTHKPLAYDSNPDEQSQSGSISPKSLPPSSSKNVPEITSSDETPKYDASLSSKKRCFKRSSSTSKLKNNVYARASSMGTILGASIEGTLISSTPLSSCLNDDFSETSQFQMEEFDPFYQSSEHIIDHMKEDISINNSEYDFSQFLEQFSNNEGEEADNTGGGYNQDLLMSDVSSTSVDEDEMMQNITGWSNYLLDHSDFNYDTSQDYDDKNFI
As to B3, the binding result in experiment [2] and in experiment [3] was “no binding” throughout.

B4: MYB21 (protein, UniProt Q9LK95 1-226)
chain: MEKRGGGSSGGSGSSAEAEVRKGPWTMEEDLILINYIANHGDGVWNSLAKSAGLKRTGKSCRLRWLNYLRPDVRRGNITPEEQLIIMELHAKWGNRWSKIAKHLPGRTDNEIKNFWRTRIQKYIKQSDVTTTSSVGSHHSSEINDQAASTSSHNVFCTQDQAMETYSPTPTSYQHTNMEFNYGNYSAAAVTATVDYPVPMTVDDQTGENYWGMDDIWSSMHLLNGN
As for B4, the binding result in experiment [2] and in experiment [3] was “no binding” throughout.

B5: MYB75 DBD (residues M1-P114) (domain or fragment, UniProt Q9FE25 1-114)
chain: MEGSSKGLRKGAWTTEEDSLLRQCINKYGEGKWHQVPVRAGLNRCRKSCRLRWLNYLKPSIKRGKLSSDEVDLLLRLHRLLGNRWSLIAGRLPGRTANDVKNYWNTHLSKKHEP
Regarding B5, the binding entry in experiment [1] is on record as “binds”.

B6: MYB29 (G120-L222) L190F (domain or fragment, UniProt Q9FLR1 120-222)
chain: GIDPVTHKPLAYDSNPDEQSQSGSISPKSLPPSSSKNVPEITSSDETPKYDASLSSKKRCFKRSSSTSKLFNKVAARASSMGTILGASIEGTLISSTPLSSCL
On to B6, for which the binding result in experiment [2] is “no binding”; in experiment [3], “binds weakly”.

B7: MYB29 (G120-L222) N191A (domain or fragment, UniProt Q9FLR1 120-222)
chain: GIDPVTHKPLAYDSNPDEQSQSGSISPKSLPPSSSKNVPEITSSDETPKYDASLSSKKRCFKRSSSTSKLLAKVAARASSMGTILGASIEGTLISSTPLSSCL
For B7, the binding entry in experiment [2] and in experiment [3] was “no binding” throughout.

B8: MYB29 (G120-L222) N191Q (domain or fragment, UniProt Q9FLR1 120-222)
chain: GIDPVTHKPLAYDSNPDEQSQSGSISPKSLPPSSSKNVPEITSSDETPKYDASLSSKKRCFKRSSSTSKLLQKVAARASSMGTILGASIEGTLISSTPLSSCL
Consider B8, for which the figures for the binding entry in experiment [2] and in experiment [3] were “no binding” and “binds weakly”, respectively.

B9: MYB29 (G120-L222) L189T V193T (domain or fragment, UniProt Q9FLR1 120-222)
chain: GIDPVTHKPLAYDSNPDEQSQSGSISPKSLPPSSSKNVPEITSSDETPKYDASLSSKKRCFKRSSSTSKTLNKTAARASSMGTILGASIEGTLISSTPLSSCL
Turning to B9, the binding result in experiment [2] and in experiment [3] was “binds” each time.

B10: MYB29 (G120-L222) N191L (domain or fragment, UniProt Q9FLR1 120-222)
chain: GIDPVTHKPLAYDSNPDEQSQSGSISPKSLPPSSSKNVPEITSSDETPKYDASLSSKKRCFKRSSSTSKLLLKVAARASSMGTILGASIEGTLISSTPLSSCL
For B10, the binding result in experiment [2] is on record as “no binding”; in experiment [3], “binds weakly”.

B11: MYB29 (G120-L222) K188E (domain or fragment, UniProt Q9FLR1 120-222)
chain: GIDPVTHKPLAYDSNPDEQSQSGSISPKSLPPSSSKNVPEITSSDETPKYDASLSSKKRCFKRSSSTSELLNKVAARASSMGTILGASIEGTLISSTPLSSCL
Regarding B11, the binding result in experiment [2] and in experiment [3] was “binds” throughout.

B12: MYB29 (G120-L222) L189T (domain or fragment, UniProt Q9FLR1 120-222)
chain: GIDPVTHKPLAYDSNPDEQSQSGSISPKSLPPSSSKNVPEITSSDETPKYDASLSSKKRCFKRSSSTSKTLNKVAARASSMGTILGASIEGTLISSTPLSSCL
Consider B12, for which the binding result in experiment [2] and in experiment [3] was “binds” throughout.

B13: MYB29 (G120-L222) V193T (domain or fragment, UniProt Q9FLR1 120-222)
chain: GIDPVTHKPLAYDSNPDEQSQSGSISPKSLPPSSSKNVPEITSSDETPKYDASLSSKKRCFKRSSSTSKLLNKTAARASSMGTILGASIEGTLISSTPLSSCL
As to B13, the binding result in experiment [2] and in experiment [3] was “binds” each time.

B14: MYB29 (G120-L222) L190A (domain or fragment, UniProt Q9FLR1 120-222)
chain: GIDPVTHKPLAYDSNPDEQSQSGSISPKSLPPSSSKNVPEITSSDETPKYDASLSSKKRCFKRSSSTSKLANKVAARASSMGTILGASIEGTLISSTPLSSCL
Regarding B14, the binding entry in experiment [2] and in experiment [3] was “no binding” each time.

B15: MYB29 (G120-L222) A194L (domain or fragment, UniProt Q9FLR1 120-222)
chain: GIDPVTHKPLAYDSNPDEQSQSGSISPKSLPPSSSKNVPEITSSDETPKYDASLSSKKRCFKRSSSTSKLLNKVLARASSMGTILGASIEGTLISSTPLSSCL
As for B15, the binding entry in experiment [2] and in experiment [3] was “no binding” each time.

B16: MYB29 (G120-L222) K192E (domain or fragment, UniProt Q9FLR1 120-222)
chain: GIDPVTHKPLAYDSNPDEQSQSGSISPKSLPPSSSKNVPEITSSDETPKYDASLSSKKRCFKRSSSTSKLLNEVAARASSMGTILGASIEGTLISSTPLSSCL
In the case of B16, the binding entry in experiment [2] and in experiment [3] was “binds” each time.

B17: MYB29 (G120-L222) K188E K192E R196E (domain or fragment, UniProt Q9FLR1 120-222)
chain: GIDPVTHKPLAYDSNPDEQSQSGSISPKSLPPSSSKNVPEITSSDETPKYDASLSSKKRCFKRSSSTSELLNEVAAEASSMGTILGASIEGTLISSTPLSSCL
On to B17, for which the binding result in experiment [2] and in experiment [3] was “binds” each time.

B18: MYB29 (G120-L222) R196E (domain or fragment, UniProt Q9FLR1 120-222)
chain: GIDPVTHKPLAYDSNPDEQSQSGSISPKSLPPSSSKNVPEITSSDETPKYDASLSSKKRCFKRSSSTSKLLNKVAAEASSMGTILGASIEGTLISSTPLSSCL
As to B18, the binding result in experiment [2] and in experiment [3] was “binds” in each case.

B19: MYB113 (protein, UniProt Q9FNV9 1-246)
chain: MGESPKGLRKGTWTTEEDILLRQCIDKYGEGKWHRVPLRTGLNRCRKSCRLRWLNYLKPSIKRGKLCSDEVDLVLRLHKLLGNRWSLIAGRLPGRTANDVKNYWNTHLSKKHDERCCKTKMINKNITSHPTSSAQKIDVLKPRPRSFSDKNSCNDVNILPKVDVVPLHLGLNNNYVCESSITCNKDEQKDKLININLLDGDNMWWESLLEADVLGPEATETAKGVTLPLDFEQIWARFDEETLELN
On to B19, for which the binding result in experiment [2] and in experiment [3] was “no binding” each time.

B20: MYB75 full-length (protein, UniProt Q9FE25 1-248)
chain: MEGSSKGLRKGAWTTEEDSLLRQCINKYGEGKWHQVPVRAGLNRCRKSCRLRWLNYLKPSIKRGKLSSDEVDLLLRLHRLLGNRWSLIAGRLPGRTANDVKNYWNTHLSKKHEPCCKIKMKKRDITPIPTTPALKNNVYKPRPRSFTVNNDCNHLNAPPKVDVNPPCLGLNINNVCDNSIIYNKDKKKDQLVNNLIDGDNMWLEKFLEESQEVDILVPEATTTEKGDTLAFDVDQLWSLFDGETVKFD
On to B20, for which the binding result in experiment [1] is “binds”; in experiment [2], “no binding”; in experiment [3] it was “no binding”.
